According to the supplement of paper PMC10126150:
Sequences with one replicate were seen in a single cluster, so their values are uncertain.

Tested on: ATP
Experiment: switch fluorescence ratio, 500 uM ATP over buffer (Cy3 cluster intensity, sum of 5 cycles each) (fold (ratio)); higher = stronger signal-on switching upon ATP binding; sequences stand for … in TCGTCGGCAGCGTCAGATGTGTATAAGAGACAGTTTTTTTTTTTTTTTTTTTTTTTTT…TC
Conditions: aptamer strand: ATP DNA aptamer (quencher-CACCTGGGGGAGTATTGCGGAGGAAGG + anchor), 100 nM annealed; ATP concentration: 500 uM; one replicate
Method in brief: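 Clusters carrying Cy3-labelled switching strands on a modified Illumina MiSeq flow-cell were annealed to 100 nM quencher-labelled ATP aptamer and imaged in selection buffer. They were imaged again after 15 min with 500 uM ATP at 22 °C, over five buffer/ATP cycles with NaOH stripping and re-annealing in between. For each cluster, the fluorescence ratio is the summed Cy3 intensity of the target cycles divided by that of the buffer cycles, averaged per switch-domain sequence. Clusters outside 100-1000 RFU were left out.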
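Note: ATP exposure 15 min at 22 °C before imaging.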

Sequence | switch fluorescence ratio
GGCACTTCGA | 1.04
GCTCGATGCC | 1
TAGTCAAACG | 1.03
GGCGTCTAGC | 0.998
CATAGTTTC | 0.958
ATCGTCATAG | 1.01
TGTTCACAAT | 1.06
TAAGACCGCG | 1.01
CAGAGTTCCA | 0.967
CTAGCCAGTT | 0.985
TAAAGGGCCT | 1.02
ATGGGCCT | 1.03
AGGACTATTA | 1.05
TAAAACGTAT | 1.01
TGCAGGAAGC | 0.965
GATATAGCAA | 1.02
CCGGGACATC | 1.38
GGTTAAATAC | 1.39
TGCGACCTGC | 1.02
GGAAGGCTAA | 1.2
TTCAGCTAAA | 1.05
CGCAACTGCT | 2.36
CCAGTAAACG | 1.02
GAATTCCGTT | 1.02
TTCGCTTACG | 1.13
AGCATTTGTC | 1.01

Sequence | switch fluorescence ratio
GGCTGGCTTC | 1.04
TAATAGGCCA | 0.998
TGACTCCTGT | 1.03
GGCCTAGCTG | 1
GAGTCGGGAT | 1
AGCAGGTGAT | 1.87
CGCCGTAGA | 1.06
CGGCTTAAGA | 0.975
GAAGTGGCAG | 1.02
GCGGTTTGTA | 0.989
TGCAAAAAGT | 1.02
TTCTGAAAGG | 1.08
TTTGACCAAC | 1.13
AAGAGTTAC | 1.01
GCACCTGGAC | 1.18
CCAGATCCGG | 1.02
TGATTGGGC | 1.02
AGATGTTATT | 0.992
CATCATGCTA | 1.17
TGACACATCG | 1.05
TAGTCGAAGT | 0.963
TCGAGAAAT | 0.986
CTAATGTTCT | 1.01
GACGCTGACC | 3.45
CAAGACAGCG | 0.986
CTTGTTAGCA | 0.978

Sequence | switch fluorescence ratio
ATATATATC | 1.03
CACATTTGGT | 1.02
AGAAATATTC | 0.997
ACACCTGTTT | 1.05
GCGTGTTGA | 1.04
ACATCTCTGC | 1.02
TGCGGTATTA | 1.01
GGGCACGAGC | 1.02
ACAATCGCTT | 0.979
AGAGAGGATG | 1
TGCGTGTCAG | 0.997
TTACATCGAA | 0.976
AGACGTGGGA | 0.961
TGGCTAGGGA | 0.97
AAGGTGCATG | 1.07
CATAGCCATC | 1.25
GGTCGCGCTC | 1.01
GGCGTCTATA | 0.982
CCGGGTTCTG | 1.09
GTTAAAAAAC | 1.12
TGCCGGATAC | 1.1
GGACCATTAG | 1.01
ACTCGGACTC | 1.12
GCATTCTGTA | 1.05
AGTTAGATCA | 1.04
AAAGAGGTA | 0.972

Sequence | switch fluorescence ratio
GTTATTGACT | 0.994
GTGGTCCG | 1.02
CAATTCTTGC | 1.03
CGAAAAGACA | 1.01
ATAAGATTAG | 0.977
GCAAAGAGAA | 1.01
GTGCATTTCG | 0.939
TATAATCTAC | 1.01
GCATCCGGTC | 1.07
CGTGTACATA | 1.01
AAAGACATAC | 1.67
CATGCTGTAC | 2.17
CTAGGATAGG | 0.98
AGCCCTGTAT | 0.99
CGCGCGAAAC | 1.01
ATCCATGTTC | 0.994
GATGTGACAT | 1
GAAGGATGTG | 1.01
ACTTGTGTCT | 1.02
GGTACATCAG | 1.03
AATGTAATGC | 1.04
TAAAATTTCG | 0.995
TGTTAATCGG | 0.983
TCTTTTAACT | 0.994
TGTGGCAGCG | 1.1
CCCTGCTCTG | 1.01

Sequence | switch fluorescence ratio
GAATTGATGC | 1.06
CATAGTAGGG | 1.02
AGAAGCTTTT | 0.96
GGCTATAGTC | 1.05
AATGTCTATA | 1.02
AAACTGGACT | 1.04
ATAACGGGTG | 1.16
GGGTAATACA | 1.04
AGTTTAGCTT | 1
CGGGATCCGT | 1.02
TATGGTCCGG | 0.991
TAGCTCTT | 1.05
ATGCTGTGGC | 0.989
CAATCGGG | 0.951
AGGAGACCTT | 1.22
GCAAACAGTT | 0.958
TGCCGGGACG | 1.03
GTTCTTGACT | 0.945
ACATTACCG | 1.35
TGGATGGAGT | 0.996
TGCTCTGTCC | 1.08
TGTCAACGGG | 0.969
GGGTGACGTC | 0.995
TGGATGCCTA | 1.07
TAACACAAAT | 0.981
TCTGCACTGG | 1.13

Sequence | switch fluorescence ratio
TCGACAGCGC | 1.25
TGATGCTAAA | 0.984
TATTCTCTT | 1.01
TGTTTTCGTT | 0.996
AGACACGTTC | 0.964
TAGACTCGCC | 1.03
TATTATTTAA | 1.03
GGCGGTTTTG | 0.975
CTAAGCTGGT | 1.02
CAATTGCATA | 1.04
AACGCGAATC | 2.2
TTAAGGCCTA | 1.01
ACGCGGTAGT | 1.03
TATACGTCGT | 1.01
TAAAGGCGTA | 0.967
GTAGTGTCTA | 0.968
TGTACTGTGA | 1.03
TGGCACAGCT | 1.02
TCTACAAGCT | 1.02
TGTGGAGGCT | 0.921
GGGCGGGTGG | 1.02
GATACGAGAG | 1.06
GAACATCGTC | 1.07
GTCACATGAC | 1.04
AACCACAGTG | 1.38
CGAATGTGTT | 0.966

Sequence | switch fluorescence ratio
GCTACCAGTA | 1.06
GAGGAATGTA | 0.978
GCTGGCGGGT | 1.05
CCGGACGCTT | 4.57
CCAGGACGTG | 1.03
GCTGCGAGGA | 1.02
GAGATACG | 1.02
TTTCTCGACG | 1
GGGACAACCA | 1.02
AAAATGAAGG | 0.972
GTGGGCGACA | 1.01
TTTGACTGTT | 1.03
TTCTTTAGTC | 0.991
ACACGGCGCC | 0.991
GGGATTTGAC | 1.01
GGTGAGTCAC | 1.02
GGGCGGGTCG | 0.912
TGGCGAAAGC | 1.03
AATAGGCCAT | 1
GGTACTACGC | 1.14
GAGTTAGAG | 1.01
GCGATATGGT | 1.06
CAACTTGGTC | 1.07
TGTTAAGTGG | 0.96
AATCCATGAA | 1.02
GCGGTCCGTC | 0.98

Sequence | switch fluorescence ratio
ATTATGTGG | 0.988
AATATTGTTT | 0.993
GCGTTCGAAT | 0.937
CGTTATCGTA | 1.02
AGGCTGGGAT | 1.09
GTATTCCGCG | 1.09
CCTATTCTGT | 0.92
GATTCTATGG | 0.973
TATGCACAGT | 1.05
ATGCCGTGAC | 0.995
CTACGGTTTC | 1.31
ATATGAATTT | 0.962
TGGCGGCAAT | 2.28
GTTCTTCGTT | 0.961
TCAAAGAAGG | 1.01
AACAGTCCTG | 1.02
TCGAGGGTTT | 0.95
TCGGTGCCGA | 0.972
CCCGTCTGGC | 1.09
